Test results taken from PMC7819943, “Rice protein-binding microarrays: a tool to detect cis-acting elements near promoter regions in rice”.
The other results are listed elsewhere or left out.

These sequences were tested against T1, OsWOX13 (Oryza sativa, UniProt Q5QMM3 1-267) (assay: protein-binding microarray (RPBM); PBS, 2% BSA, 51.3 ng/ul salmon testes DNA, 50 uM zinc acetate, 200 nM TF, 25 C, 1 h; high values mean tight binding). Details: protein: recombinant; tags: N-terminal polyhistidine and DsRed monomer fusion (pET32a); label: CyDye5-dUTP incorporated in the synthesized complementary strand; 3' TTTTT single-stranded linker to array surface; dsDNA, one strand shown.
T1 sequence: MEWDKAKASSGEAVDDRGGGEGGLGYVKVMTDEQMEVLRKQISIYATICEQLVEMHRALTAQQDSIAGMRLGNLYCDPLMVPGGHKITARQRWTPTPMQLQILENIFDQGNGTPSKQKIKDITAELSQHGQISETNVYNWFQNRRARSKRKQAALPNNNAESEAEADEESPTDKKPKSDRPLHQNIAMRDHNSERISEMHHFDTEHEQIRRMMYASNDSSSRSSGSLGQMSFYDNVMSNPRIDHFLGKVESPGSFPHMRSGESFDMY
Procedure, shortened: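 An Axon 4000B scanner gave the binding signal as per-feature fluorescence intensity in arbitrary units. This followed washing of a custom Agilent array that had been incubated for 1 h at 25 °C with 200 nM protein in PBS, 2% BSA, salmon testes DNA and 50 µM zinc acetate. The proteins were transcription factors fused at the N-terminus to polyhistidine and DsRed, expressed in E. coli BL21-CodonPlus and purified on Ni–NTA.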

Row | Sequence | binding signal
1 | ATCAAATTCAATCAAAACAATACTGACCGAATTAATGACCCGGAGTCACCTAGTGCAG | 11700 fluorescence intensity (a.u.)
2 | AACTATTAATTTGACATCTACTTCATATCGAACTATTATTCGGAGTCACCTAGTGCAG | 9350 fluorescence intensity (a.u.)
3 | CAGTTTTCTTGATTTATAATCTGTTCCAATTGTTCAGGTGCGGAGTCACCTAGTGCAG | 15100 fluorescence intensity (a.u.)
4 | GATTGATTGGATGACGCCAAGCGGCAAATCGTATCGAACCCGGAGTCACCTAGTGCAG | 43600 fluorescence intensity (a.u.)
5 | TAAATTGATTGTGTAGTAAGAGTTGCTCCGTTTTACGCGCCGGAGTCACCTAGTGCAG | 49400 fluorescence intensity (a.u.)
6 | TCCTCCGTTAACTGCTCGCTGAATTGGATAGCAGACTACGCGGAGTCACCTAGTGCAG | 8100 fluorescence intensity (a.u.)
7 | GAAACGAACGCGGGAATTGATAGATATGGGCCCCACCGGTCGGAGTCACCTAGTGCAG | 6710 fluorescence intensity (a.u.)
8 | AGTCAAATTAGCCACGTAGATGCTACATCAGCTAAAACCGCGGAGTCACCTAGTGCAG | 3530 fluorescence intensity (a.u.)
9 | GTAATTAGTTGTTTGATACCCGACGCATTATTTTATTATTCGGAGTCACCTAGTGCAG | 3500 fluorescence intensity (a.u.)
10 | CAATATAATTACATATATTGAAATATAAACTAGGAGTTGTCGGAGTCACCTAGTGCAG | 26200 fluorescence intensity (a.u.)
11 | GGAAAGTGGACAATTAAATCAAGCGATGATGTGGATGTGGCGGAGTCACCTAGTGCAG | 3570 fluorescence intensity (a.u.)
12 | ACCAGGCATAATAACTTGTAATTGATGTAATTTGATTCCACGGAGTCACCTAGTGCAG | 18400 fluorescence intensity (a.u.)
13 | CTAACCGAATTGACCGAACAAAATTCGGTCTTTTACTGCCCGGAGTCACCTAGTGCAG | 5480 fluorescence intensity (a.u.)
14 | CCACATGTCATTGTCACCTCCTAATTAACCCCGAAGGCAACGGAGTCACCTAGTGCAG | 3360 fluorescence intensity (a.u.)
15 | TTTAATATTAAATTTAATGAAACTAATTTGGTGTTACAGACGGAGTCACCTAGTGCAG | 28300 fluorescence intensity (a.u.)
16 | AATATAATCTATCACAATTCACAAATGCTATAGAATTTCGCGGAGTCACCTAGTGCAG | 3520 fluorescence intensity (a.u.)
17 | TATAAATTGCATATAAATTTGTTCCAAAATTTTCCCTCTTCGGAGTCACCTAGTGCAG | 33000 fluorescence intensity (a.u.)
18 | TATGACATGCGAGGGGATTAATTAGAAGCCTGAGGTTGGACGGAGTCACCTAGTGCAG | 4070 fluorescence intensity (a.u.)
19 | TTGGACGCTAATTTGGAGTATTAAACATAGACTAGTAAAACGGAGTCACCTAGTGCAG | 5910 fluorescence intensity (a.u.)
20 | ACAATTGATAGATTTGTCTGTTGCTTTGCTTTGATTCCTCCGGAGTCACCTAGTGCAG | 43800 fluorescence intensity (a.u.)
21 | AAAATTGGGAACCATGATAGGTATAGAACGCAGCCTTACTCGGAGTCACCTAGTGCAG | 6380 fluorescence intensity (a.u.)

Row | Sequence | binding signal
22 | ATGATGGATGAAGATGGAACTGACATGTAGGTCGAACTCGCGGAGTCACCTAGTGCAG | 7030 fluorescence intensity (a.u.)
23 | GATCCGCTCAGTACACCGTAATTAATTGCCACATTTTAAACGGAGTCACCTAGTGCAG | 4580 fluorescence intensity (a.u.)
24 | GAAATGTCAATCAAACTCGGTGTAAAGTTGAAGGGACGGTCGGAGTCACCTAGTGCAG | 36800 fluorescence intensity (a.u.)
25 | CGATGATATAATTAGCATGAGGACATAGAATTCTAATTAACGGAGTCACCTAGTGCAG | 8620 fluorescence intensity (a.u.)
26 | ATCTGATTTCCCTACAGAAAGACTGCGAGTGCAGTGGCAGCGGAGTCACCTAGTGCAG | 5010 fluorescence intensity (a.u.)
27 | AACATCACAACCACACTTATGATTGAATTTGAAATTCTGACGGAGTCACCTAGTGCAG | 9820 fluorescence intensity (a.u.)
28 | CGGTTTTGTAAATTGAGGGGTGCCATATATCTGGTTTCATCGGAGTCACCTAGTGCAG | 5000 fluorescence intensity (a.u.)
29 | TGGGGTAAGTATGATTGAGTGTTACATTTAACTATTTGCCCGGAGTCACCTAGTGCAG | 17600 fluorescence intensity (a.u.)
30 | TAATTAATTAATTAATTTGGTCAAGCGGTTAATCACCTGGCGGAGTCACCTAGTGCAG | 47400 fluorescence intensity (a.u.)
31 | ATATTAAATTTATTTACCATCATTGATTAGATAATTCGCGCGGAGTCACCTAGTGCAG | 37300 fluorescence intensity (a.u.)
32 | TCATTCCAATTTTAACTAAACTTTTAATTTTGGTGTGAACCGGAGTCACCTAGTGCAG | 4780 fluorescence intensity (a.u.)
33 | GGTCTAACTAATTATCACCCCTACCTACAAAATTACGGTCCGGAGTCACCTAGTGCAG | 18600 fluorescence intensity (a.u.)
34 | AGGAATAATTGTATTAAGATTTAATAAATTATGATATTTTCGGAGTCACCTAGTGCAG | 12200 fluorescence intensity (a.u.)
35 | AGCAATTAAGCCTCGTGTTGTGATTGGTTGGCTGGTTGGTCGGAGTCACCTAGTGCAG | 9970 fluorescence intensity (a.u.)
36 | GCAGAATGGTTGATTGTCTCCTATAAATAGGAGCCCAGCTCGGAGTCACCTAGTGCAG | 22800 fluorescence intensity (a.u.)
37 | AAATTATAATTGAGCTGCCTCATCAATGACGACGGAAATCCGGAGTCACCTAGTGCAG | 9180 fluorescence intensity (a.u.)
38 | TGCAACACAAATTATCTAAGCGACGCTGTTTAGCATATCCCGGAGTCACCTAGTGCAG | 4040 fluorescence intensity (a.u.)
39 | TTTTAATCAATGAGATTATTCCAAGTAGCCAAGTAGGTAACGGAGTCACCTAGTGCAG | 4720 fluorescence intensity (a.u.)
40 | ATAATTAATATATGTTGATACATGTATAGACTCTTCTAATCGGAGTCACCTAGTGCAG | 10700 fluorescence intensity (a.u.)
41 | CACTAATTAATCTATTGCTAGTACAAGCTAGTACTTGACTCGGAGTCACCTAGTGCAG | 23400 fluorescence intensity (a.u.)
42 | ACTCTTAGACTGTCAATTGGTCGACATCTACGCTTATCATCGGAGTCACCTAGTGCAG | 9430 fluorescence intensity (a.u.)
